Out of some 45,000 compounds screened, about 65 (0.1%) were called active. The call rests on the fitted dose curve; in most records, active means well fitted activation curve with a large enough effect; inconclusive means small, poorly fitted or top-dose-only effect; inactive means no such curve, though single readings can be large or run the other way. The list shows a part of the results.
What follows are compounds tested against Galactocerebrosidase (Homo sapiens) (UniProt P54803) (assay: A Novel Cell-Based Assay to Identify Small Molecules for B -Galactocerebrosidase). Conditions: 145M-Twi-hGALC-G270D cells (Twitcher mouse brain line with human GALC G270D), HMU-beta-Gal fluorescence, 48 h; series mostly up to 57.5 µM; activation: at the top concentration.
Method in brief: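 Fluorogenic HMU-b-Gal hydrolysis (0.1 mM final, pH 5.2 citrate-phosphate with 1 mg/mL sodium taurocholate; carbonate stop buffer) measures mutant GALC activity after compound treatment of live 145M-Twi Twitcher brain cells stably carrying human GALC-G270D, with wild-type GALC line alongside; activation sought.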
Further: 0% is about no effect; nearly all actives have a fitted effect of over 65% in size.

UniProt P54803, sequence (P54803 whole entry, looked up): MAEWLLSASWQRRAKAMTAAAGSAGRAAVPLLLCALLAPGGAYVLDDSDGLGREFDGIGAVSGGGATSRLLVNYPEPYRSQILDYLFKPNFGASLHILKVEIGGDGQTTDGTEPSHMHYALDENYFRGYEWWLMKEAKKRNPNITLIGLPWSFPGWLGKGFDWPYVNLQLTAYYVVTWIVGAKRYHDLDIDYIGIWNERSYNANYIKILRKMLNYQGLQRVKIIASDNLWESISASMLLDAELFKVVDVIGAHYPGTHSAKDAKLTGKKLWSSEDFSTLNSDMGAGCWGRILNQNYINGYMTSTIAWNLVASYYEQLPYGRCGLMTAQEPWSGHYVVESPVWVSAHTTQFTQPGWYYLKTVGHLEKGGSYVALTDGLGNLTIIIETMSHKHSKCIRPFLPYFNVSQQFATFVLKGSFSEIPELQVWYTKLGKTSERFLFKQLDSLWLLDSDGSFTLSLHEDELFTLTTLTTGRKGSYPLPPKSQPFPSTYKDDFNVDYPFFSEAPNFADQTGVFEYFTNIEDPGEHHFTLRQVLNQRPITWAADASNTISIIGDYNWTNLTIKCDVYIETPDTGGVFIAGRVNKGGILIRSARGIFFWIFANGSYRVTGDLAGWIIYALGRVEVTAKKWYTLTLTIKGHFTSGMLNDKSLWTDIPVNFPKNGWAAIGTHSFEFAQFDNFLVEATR

Compound	activation
CCn1nc(C)c(CCN(C)C(=O)Nc2cc(Cl)ccc2C)c1C	inactive: -14%
O=C(Nc1ccc(Cl)cc1)N1CCN(c2ccc3nnc(-c4ccc(F)cc4)n3n2)CC1	inactive: 2.8%
Cc1ccc(-n2nc(CO)c(C(=O)NCc3cccs3)n2)cc1	inactive: -24.7%
COc1cc2c(c(OC)c1OC)-c1ccc(OC)c(=O)cc1[C@@H](NC(C)=O)CC2	inactive: -10.2%
Cc1ccc(CNC(=O)CCS(=O)(=O)c2cc(Br)cc3c2N(C(=O)C2CC2)CC3)cc1	inactive: -15.8%
Cc1cc(NC(=O)Nc2nc3c(s2)CCCCCC3)ccc1Br	inactive: -18.3%
CCCCn1c(CNC(=O)c2ccc(OC)cc2)nnc1SCC(=O)Nc1ccc(OC)cc1	inactive: -10.3%
Cc1ccc(NCc2nc3ccccc3n2CCOc2ccccc2)cc1	inactive: -8.58%
COc1ccccc1Nc1cc(C(=O)NCc2cccs2)c2ccccc2n1	inactive: -8.59%
CCC(=O)N1CCc2cc(S(=O)(=O)CCC(=O)NCc3ccccc3OC)ccc21	inactive: -1.94%
Cc1cc(C)c(S(=O)(=O)NCC(c2cccs2)S(=O)(=O)c2ccccc2)c(C)c1 (stereo not drawn)	inactive: -18.1%
CN(C)S(=O)(=O)c1ccc2c(c1)N(CC(=O)N1CCN(c3ccc(F)cc3)CC1)CCS2	inactive: -18.2%
Cc1ccc(-c2nc(CS(=O)CC(=O)N3CCN(c4ccc(Cl)cc4)CC3)c(C)o2)cc1 (stereo not drawn)	inactive: -10.1%
COc1ccc2nc3oc(C(=O)NCc4ccccc4OC)cc3cc2c1	inactive: -14.8%
NC(=O)CSc1ncc2c(n1)-c1ccccc1N(Cc1cccc(F)c1)S2(=O)=O	inactive: -0.853%
COc1ccc(-c2noc(-c3nnn(-c4cc(C)ccc4C)c3N)n2)cc1	inactive: -24.9%
COc1ccccc1-c1nnc(C2CCN(C(=O)c3ccc(C)cc3)CC2)o1	inactive: -17.3%
Cc1ccc(-n2ncc(C(=O)NCCc3ccsc3)c2C2CCN(C(=O)OC(C)(C)C)CC2)cc1C	inactive: -0.891%
Cc1nc2ccccc2c(=O)n1-c1ccc(NC(=O)C(F)(F)F)cc1	inactive: -16%
Cc1cc(NC(=O)CSc2ncc(C(=O)Nc3ccc(F)cc3)c(=O)n2C)no1	inactive: 1.66%
CC1CCN(c2ccc(-c3nc(C(C)C)no3)cc2[N+](=O)[O-])CC1	inactive: -24%
CCN(CC)CCNC(=O)c1ccc(Cn2c(=O)c3cccn3c3cccnc32)cc1	inactive: -13.7%
CCOc1ccccc1NC(=O)c1c(NCc2sccc2C)sc2c1CCCCC2	inactive: -19.6%
CCCNC(=O)c1ccc(-n2c(-c3ccccc3)cc3c2CCC(C)C3)cc1 (stereo not drawn)	inactive: 11.4%
O=C(CC(NCc1cccnc1)C(=O)O)Nc1ccc(F)cc1 (stereo not drawn)	inactive: -21.8%

Compound	activation
O=c1oc2ccc(Br)cc2cc1-c1csc(-c2ccc(Cl)cc2)n1	inactive: -15%
CCCN1C(=O)C2(c3ccccc31)c1c(oc3ccccc3c1=O)C(=O)N2CCO (stereo not drawn)	inactive: -0.979%
Cc1cccc(N2CCN(C(=O)CS(=O)(=O)c3cccc4nsnc34)CC2C)c1 (stereo not drawn)	inactive: -23.9%
C=Cc1ccc(Cn2c(C(=O)O)c(CNCc3cc(Br)ccc3OC)c3ccc(C)cc32)cc1	inactive: -12.5%
CCc1ccccc1NC(=O)N1CCN(c2cc(-c3noc(C)n3)ccc2C)CC1	inactive: -9.29%
COc1ccc2oc(=O)c(C(=O)NCCc3c(C)[nH]c4c(Cl)cccc34)cc2c1	inactive: -6.19%
COc1cc2ccccc2cc1C(=O)Nc1cccc(-c2nc3cc(C)c(C)cc3o2)c1C	inactive: -11.3%
Cc1nc2nc(NCc3cccc(Br)c3)[nH]n2c(=O)c1Cc1ccccc1	inactive: -10.4%
O=C(Nc1cccc(Cl)c1Cl)c1ccc2c(c1)N(Cc1cccc(Cl)c1)C(=O)c1ccccc1S2(=O)=O	inactive: 1.44%
Cn1nnnc1SCCNCc1ccc(F)cc1	inactive: -4.33%
CCOC(=O)c1cccc(NC(=O)C(CC(C)C)N2Cc3ccccc3C2=O)c1 (stereo not drawn)	inactive: -36.4%
O=S(=O)(Nc1ccc(Cl)cc1)c1ccc(NS(=O)(=O)c2ccc3c(c2)OCCO3)cc1	inactive: -26.4%
Cc1ccc(CN(C(=O)COc2cccc([N+](=O)[O-])c2)c2ccccn2)o1	inactive: -19.8%
CCOc1ccc(CCNC(=O)CCCn2nc(C)c3sc4ccccc4c3c2=O)cc1OCC	inactive: -3.53%
O=C(CSc1nccn1-c1ccccc1)Nc1nc2ccccc2s1	inactive: -40.2%
CCOc1ccc(CNC(=O)CCC(=O)N2CC(C)Sc3ccccc32)cc1 (stereo not drawn)	inactive: -2.15%
COC(=O)CC1c2cc(OC)c(OC)cc2CCN1C(=O)Nc1ccc(C)cc1Cl (stereo not drawn)	inactive: -18.6%
COc1ccccc1Nc1nn2c(=O)c3ccc(C(=O)NCCCOC(C)C)cc3nc2s1	inactive: -22.8%
N#C/C(=C/c1cn(Cc2ccc(F)cc2)c2ccccc12)C(=O)Nc1cccc(Cl)c1	inactive: -15.1%
CCn1c2ccccc2c2nnc(SCCN3CCCCC3)nc21	inactive: -12.6%
COc1cc(-c2noc(-c3ccc(NCc4cccnc4)c([N+](=O)[O-])c3)n2)cc(OC)c1OC	inactive: -6.66%
COc1ccc(OC)c(CNC(=O)CCCn2ccc3cc(S(=O)(=O)N4CCCC4)ccc32)c1	inactive: 9.79%
Cc1ccc(NC(=O)c2cnc(SCC(=O)N3CCOCC3)n(C)c2=O)cc1	inactive: -14.4%
CCc1ccc(CNC(=O)c2cccc(-n3cnc4cccnc43)c2C)cc1	inactive: -11.8%
CCOc1ccc(OCC)c(NC(=O)Cn2ncc3c4ccccc4n(Cc4ccccc4)c3c2=O)c1	inactive: 1.57%

Compound	activation
Cn1ccc2cc(S(=O)(=O)N3CCCN(C(=O)Nc4ccccc4Br)CC3)ccc21	inactive: -1.97%
CCC1CN(C(=O)N2CCC(C(=O)NCCN(C)C)CC2)c2ccccc2O1 (stereo not drawn)	inactive: 2.21%
CN(c1ccc(Cl)cc1)S(=O)(=O)c1nnc(NC(=O)C2CCCCC2)s1	inactive: 5.83%
COc1cccc(NC(=O)CN(C)S(=O)(=O)c2ccc3nc(C)sc3c2)c1	inactive: -8.31%
COc1ccc(C)cc1N(C)C(=O)c1c(C)oc2ncnc(N3CCOCC3)c12	inactive: -6.02%
CCOc1ccccc1NC(=O)c1c(NC(=O)c2ccccc2C)sc2c1CCC(C)C2 (stereo not drawn)	inactive: -11.5%
CCNC(=O)c1cnc2sc(N3CCCCCC3)nn2c1=O	inactive: -8.47%
COC(=O)c1c(C)sc(-c2c(-c3ccc4c(c3)OCCO4)[nH]c3c2c(=O)n(C)c(=O)n3C)c1O	inactive: -6.69%
COc1cc(C(=O)Oc2c(Sc3ccc(C)cc3)c(C)nn2-c2ccccc2)cc(OC)c1OC	inactive: -8.1%
Cc1ccc2c(c1)cc(C(=O)Nc1ccc(F)cc1F)n2C	inactive: -17.5%
Cc1cccc(NC(=O)C2CCCN(S(=O)(=O)c3cnc[nH]3)C2)c1C (stereo not drawn)	inactive: -34.9%
Cc1ccn2c(Nc3ccc4c(c3)OCCO4)c(-c3ccc(Cl)s3)nc2c1	inactive: -9.14%
CN(C1CCCCC1)S(=O)(=O)c1ccc2c(c1)c(=O)c(C(=O)NCCc1ccccc1)cn2C	inactive: -22.6%
O=C(NCCc1ccc(Cl)cc1)c1ccc(CS(=O)Cc2cccc(Cl)c2)o1 (stereo not drawn)	inactive: -19.3%
CCC(C)NC(=O)c1cnn(-c2ccc(Cl)cc2)c1C1CCN(C(=O)OC(C)(C)C)CC1 (stereo not drawn)	inactive: -8.45%
COC(=O)c1n[nH]n(-c2ccccc2)c1=O	inactive: -14.6%
Nc1nnc(SCC(=O)Nc2ccccc2C(F)(F)F)s1	inactive: -2.36%
Cn1c(=O)c2cc(C(=O)N3CCN(c4ccc(Cl)cc4)CC3)sc2c2ccccc21	inactive: -12.7%
Cc1ccc(C(=O)N(Cc2ccc(N(C)C)cc2)Cc2ccco2)cc1	inactive: -3.98%
CCOC(=O)c1cc(NC(=O)c2ccc(F)cc2)c(=O)n2c1oc1ccccc12	inactive: 14.2%
Cc1oc(-c2ccc(C(=O)Nc3cc(F)ccc3F)cc2)nc1COc1ccccc1	inactive: 12.4%
Cc1ccc2c(c1)C(c1ccccc1)N(C(=O)Cc1ccc(F)cc1)CC(=O)N2 (stereo not drawn)	inactive: -3.62%
Cc1cc(C)n(-c2nnc(Nc3ccc(C)c(Cl)c3)c3ccccc23)n1	inactive: 10.5%
Cn1c(=O)[nH]c2cc(-c3noc(-c4ccc(C#N)cc4)n3)ccc21	inactive: -17.3%
CCCS(=O)(=O)NCCc1sc2nc(-c3ccc(F)cc3)nn2c1C	inactive: -7.73%

Compound	activation
COc1cc(C2Nc3c(C)cc(C)cc3-c3cc(C)nn32)cc(OC)c1O (stereo not drawn)	inactive: 4.63%
O=C(c1cccn1-c1nnc(N2CCCC2)s1)N1CCN(c2ccc(Cl)cc2)CC1	inactive: -24.7%
O=C(COc1ccc2ccccc2c1)NC1CC(=O)N(c2cccc(F)c2)C1 (stereo not drawn)	inactive: -14.8%
CC1=C(C(=O)Nc2ccc(Cl)cc2)C(CC(C)C)n2nc(SCc3ccccc3C)nc2N1 (stereo not drawn)	inactive: -13%
Cc1ccc(S(=O)(=O)Nc2nc3n(n2)C(c2ccc(F)cc2)C=C(c2ccccc2)N3)cc1 (stereo not drawn)	inactive: -6%
Nc1nc2ccc([N+](=O)[O-])cc2s1	inactive: -13% [at 114 µM]
CC(=O)Nc1ccc(S(=O)(=O)NCC2CCC(C(=O)NCCN(CC(C)C)CC(C)C)CC2)cc1 (stereo not drawn)	inactive: -9.97%
CN(C)C(=O)c1c(NC(=O)c2ccccc2F)sc2c1CCCC2	inactive: -14.1%
COc1ccc(C2=NC(C)(C)N(CC(=O)Nc3cccc(C)c3)C2=O)cc1	inactive: -14.2%
COc1ccc(Cn2c(C(=O)O)c(CNCCc3cc(OC)ccc3OC)c3ccc(C)cc32)cc1	inactive: -17.8%
CCCCCCCC(=O)[O-].CCCCCCCC(=O)[O-].[Zn+2]	inactive: -14.4%
COc1ccccc1CNS(=O)(=O)c1cnc(N)nc1	inactive: -3.85%
COc1ccc(C2c3c(n(C)c4ccccc34)C(=O)N2CC(=O)Nc2cccc(F)c2)cc1 (stereo not drawn)	inactive: -16%
O=c1oc2ccc3ccccc3c2cc1-c1nnc(Nc2ccc(F)cc2)s1	inactive: 2.8%
CCCc1cc(=O)[nH]c2nnc(SCC)n12	inactive: -12.4%
Cc1ccc(N2CC(C)Cn3c2nc2c3c(=O)n(Cc3cccc(Cl)c3)c(=O)n2C)cc1 (stereo not drawn)	inactive: -6.72%
COc1ccc(NC(=O)c2oc3ccc(S(=O)(=O)N4CCOCC4)cc3c2C)cc1	inactive: 15.2%
O=C(NCC(c1ccco1)S(=O)(=O)c1cccs1)c1ccccc1F (stereo not drawn)	inactive: 0.885%
COc1cccc(CNc2cc(C)nc3nc(-c4ccc(C)cc4)nn23)c1	inactive: -28.2%
NS(=O)(=O)c1cc2c(cc1C(F)(F)F)NC(Cc1ccccc1)NS2(=O)=O (stereo not drawn)	inactive: -14.1%
Cc1ccc(Cl)cc1N1CCN(CCCNC(=O)c2ccc3nc(N4CCCCC4)sc3c2)CC1	inactive: -6.02%
Cc1ccc(-n2nc3c(=O)n(C(C)C(=O)NCc4ccco4)nc(C)c3c2C)cc1 (stereo not drawn)	inactive: -8.67%
O[C@@H](c1cc(C(F)(F)F)nc2c(C(F)(F)F)cccc12)[C@H]1CCCCN1	inactive: -6.71%
